{"sequences": {"note": "The chains behind the UniProt entries cited, without tags or fusion partners. Where a name states a change or a piece, a line headed by the entry shows the natural chain unless it says otherwise. A line that says so, or that is headed by a name, gives the form on record, which may keep a tag or linker.", "UniProt P21673": "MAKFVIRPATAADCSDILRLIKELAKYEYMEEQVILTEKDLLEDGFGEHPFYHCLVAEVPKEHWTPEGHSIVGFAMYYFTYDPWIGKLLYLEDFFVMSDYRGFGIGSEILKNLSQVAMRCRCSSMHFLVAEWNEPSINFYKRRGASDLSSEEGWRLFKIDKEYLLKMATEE", "human diamin acetyltransferase 1 (SAT1), Ser-149 Glutamate mutant (P21673, form named)": "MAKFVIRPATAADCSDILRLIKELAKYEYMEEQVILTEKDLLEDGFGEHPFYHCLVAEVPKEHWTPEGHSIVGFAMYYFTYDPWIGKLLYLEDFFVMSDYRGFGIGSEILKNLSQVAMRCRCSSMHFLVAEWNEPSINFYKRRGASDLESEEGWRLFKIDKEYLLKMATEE", "human diamin acetyltransferase 1 (SAT1), Ser-149 Alanine mutant (P21673, form named)": "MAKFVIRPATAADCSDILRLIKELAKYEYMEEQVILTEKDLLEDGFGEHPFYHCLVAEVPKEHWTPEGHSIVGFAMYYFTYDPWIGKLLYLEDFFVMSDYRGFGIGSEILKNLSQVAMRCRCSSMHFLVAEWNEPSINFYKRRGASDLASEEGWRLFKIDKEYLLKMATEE"}, "source": "paper PMC5386296", "molecules": {"B1": {"name": "yeast Adenine phosphoribosyltransferase (APT1), wild-type (enzyme, UniProt P49435 1-187)", "chain": "MSIASYAQELKLALHQYPNFPSEGILFEDFLPIFRNPGLFQKLIDAFKLHLEEAFPEVKIDYIVGLESRGFLFGPTLALALGVGFVPVRKAGKLPGECFKATYEKEYGSDLFEIQKNAIPAGSNVIIVDDIIATGGSAAAAGELVEQLEANLLEYNFVMELDFLKGRSKLNAPVFTLLNAQKEALKK"}, "B2": {"name": "Mouse DNA fragmentation factor A (DffA), wild-type (protein, UniProt O54786 1-331)", "chain": "MELSRGASAPDPDDVRPLKPCLLRRNHSRDQHGVAASSLEELRSKACELLAIDKSLTPITLVLAEDGTIVDDDDYFLCLPSNTKFVALACNEKWIYNDSDGGTAWVSQESFEADEPDSRAGVKWKNVARQLKEDLSSIILLSEEDLQALIDIPCAELAQELCQSCATVQGLQSTLQQVLDQREEARQSKQLLELYLQALEKEGNILSNQKESKAALSEELDAVDTGVGREMASEVLLRSQILTTLKEKPAPELSLSSQDLESVSKEDPKALAVALSWDIRKAETVQQACTTELALRLQQVQSLHSLRNLSARRSPLPGEPQRPKRAKRDSS"}, "B3": {"name": "Mouse DNA fragmentation factor A (DffA), Thr-68 Alanine mutant (protein, UniProt O54786 1-331)", "chain": "B2 chain with T68A"}, "B4": {"name": "Mouse DNA fragmentation factor A (DffA), Thr-68 Glutamate mutant (protein, UniProt O54786 1-331)", "chain": "B2 chain with T68E"}}, "experiment_in_all_cases": "two-hybrid; ProQuest two-hybrid system, yeast strain MaV203 double-transformed with bait (pDEST32) and prey (pDEST22); growth on SC-Leu-Trp plates lacking histidine with 10, 25, 50 mM 3-aminotriazol, assessed after 2-5 days; for homodimers both copies carried the mutation", "key": {"[1]": {"molecular_target": "human diamin acetyltransferase 1 (SAT1), Ser-149 Glutamate mutant (human) (UniProt P21673)"}, "[2]": {"molecular_target": "human diamin acetyltransferase 1 (SAT1), Ser-149 Alanine mutant (human) (UniProt P21673)"}, "[3]": {"molecular_target": "human diamin acetyltransferase 1 (SAT1), wild-type (human) (UniProt P21673)"}, "[4]": {"molecular_target": "yeast Adenine phosphoribosyltransferase (APT1), wild-type (yeast) (UniProt P49435)"}, "DffB": {"molecular_target": "T1, DffB (UniProt O54788)", "T1 sequence": "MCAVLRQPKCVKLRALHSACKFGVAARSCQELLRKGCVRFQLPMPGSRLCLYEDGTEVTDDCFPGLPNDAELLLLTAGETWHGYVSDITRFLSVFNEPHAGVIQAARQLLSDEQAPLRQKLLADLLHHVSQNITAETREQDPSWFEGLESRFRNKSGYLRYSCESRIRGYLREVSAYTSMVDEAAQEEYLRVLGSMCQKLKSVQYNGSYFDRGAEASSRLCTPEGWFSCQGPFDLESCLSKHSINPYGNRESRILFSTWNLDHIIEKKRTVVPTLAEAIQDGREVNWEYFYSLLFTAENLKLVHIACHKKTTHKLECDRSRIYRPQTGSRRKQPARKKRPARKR"}}, "note": "Positions count from the first letter of the chain named. No constants are given. Whether binding was seen depends on the method and setting. Some binding calls cover weakened binding; strength is not graded here.", "data": [{"molecule": "human diamin acetyltransferase 1 (SAT1), Ser-149 Glutamate mutant (from UniProt P21673 1-171) (enzyme)", "values": [{"measurement": "binding", "setting": "[1]", "result": "binds"}]}, {"molecule": "human diamin acetyltransferase 1 (SAT1), Ser-149 Alanine mutant (from UniProt P21673 1-171) (enzyme)", "values": [{"measurement": "binding", "setting": "[2]", "result": "no binding"}]}, {"molecule": "human diamin acetyltransferase 1 (SAT1), wild-type (from UniProt P21673 1-171) (enzyme)", "values": [{"measurement": "binding", "setting": "[3]", "result": "binds"}]}, {"molecule": "B1", "values": [{"measurement": "binding", "setting": "[4]", "result": "binds"}]}, {"molecule": "B2", "values": [{"measurement": "binding", "setting": "DffB", "result": "binds"}]}, {"molecule": "B3", "values": [{"measurement": "binding", "setting": "DffB", "result": "binds"}]}, {"molecule": "B4", "values": [{"measurement": "binding", "setting": "DffB", "result": "no binding"}]}]}
